In PMC5892938:
Some of the results follow. The source does not settle which construct or isoform was used.

What follows are sequences tested against GST-SBP-ILF3 (Homo sapiens) (UniProt Q12906) (assay: targeted RNA Bind-n-Seq). Conditions: RBNS binding buffer: 25 mM Tris pH 7.5, 150 mM KCl, 3 mM MgCl2, 0.1% Tween, 0.5 mg/mL BSA, 1 mM DTT; 27 nM protein, 750 pM RNA pool; temperature not stated; high values mean tight binding; sequences stand for … in GGGUAAAAGCGAGGUGAA…CGGGACAAGUAUUAUGGG.
“GUGUGUUGUGUUGGAAUCUAACACAGCACG [gtspaired]” was tested, and the binding signal (log2 fold change) was -0.719. Work on “GUUGUGUGUGUUGGCCCCUAACACACGCGA [gtspaired]” yielded a binding signal (log2 fold change) of -0.181. With “UUUUUUUUUUGAGACGGGAGCCGUCUUCUA [tttttgagapaired]” the binding signal (log2 fold change) was 0.436. With “GUGUUGUGUGUUGGCACCUAACACACAGCA [gtspaired]” the binding signal (log2 fold change) was -0.477. “UUUUUUUUUUGAGACCGAAUCGGUCUCCAG [tttttgagapaired]” showed a binding signal (log2 fold change) of 0.49. In the case of “UUUUUUUUUUGAGAAGGUAUCCUUCUCCGG [tttttgagapaired]”, the binding signal (log2 fold change) is reported as 0.0261. For “UUCCUUCUUCCUCCAAGGGAGGGAGAGGGA [ctspaired]”, the binding signal (log2 fold change) was 0.0668. Sequence “GGUGUGUGUGUUGGUGCCUAACACAUACAC [gtspaired]” has a binding signal (log2 fold change) of -0.399. “UUUUUUUUUUGAGAGCGAAACGUUCUCCAG [tttttgagapaired]” was tested, and the binding signal (log2 fold change) was -0.0109. With “GUGGUGUGUGUUGGAGCCUAACACACAUCG [gtspaired]” the binding signal (log2 fold change) was -0.68. With “GGUGUGUGUGUUGGCCUCUAACACAUAUAC [gtspaired]” the binding signal (log2 fold change) was -0.751. Sequence “GUUGGUGGUGUUGGCACCUAACACCAUCAA [gtspaired]” has a binding signal (log2 fold change) of -0.244. Sequence “GUGUGUUGUGUUGGCUCCUAACACAGCGCG [gtspaired]” has a binding signal (log2 fold change) of -0.64. Sequence “UUUUUUUUUUGAGAGUGAGGCACUCUCCUG [tttttgagapaired]” has a binding signal (log2 fold change) of 0.477. With “GUGGUGUGUGUUGGUUCCUAACACAUACUA [gtspaired]” the binding signal (log2 fold change) was -0.524. For “UUUUUUUUUUGAGAGCGAACCGCUCUCCGG [tttttgagapaired]”, the binding signal (log2 fold change) was 0.24. “GGUGGUUGUGUUGGUAUCUAACACAGCCGC [gtspaired]” gave a binding signal (log2 fold change) of -0.631. “UUUUUUUUUUGAGAGCGUGGCGCUCUCCUG [tttttgagapaired]” was tested, and the binding signal (log2 fold change) was 0.434. “GUGGUGUGUGUUGGCCUCUAACACACGCCG [gtspaired]” was tested, and the binding signal (log2 fold change) was -0.705. With “GUGGUGUGUGUUGGCUUCUAACACAUACCA [gtspaired]” the binding signal (log2 fold change) was -0.467. In the case of “UUUUUUUUUUGAGAGGGUGGCCCUCUCCUA [tttttgagapaired]”, the binding signal (log2 fold change) is reported as 0.726. Work on “UUUUUUUUUUGAGAUGGUGACUAUCUCCAG [tttttgagapaired]” yielded a binding signal (log2 fold change) of 0.461. In the case of “UUUUUUUUUUGAGAGCGUCACGCUCUCCUG [tttttgagapaired]”, the binding signal (log2 fold change) is reported as 0.382. With “UUUUUUUUUUGAGAUGGAGACCAUCUUCUA [tttttgagapaired]” the binding signal (log2 fold change) was 0.125. Work on “UUUUUUUUUUGAGAGGGAGUCCCUCUCCGG [tttttgagapaired]” yielded a binding signal (log2 fold change) of 0.836. Work on “UUCCUUCUUCCUCCACUGGAGGGAGAGGGA [ctspaired]” yielded a binding signal (log2 fold change) of -0.338. In the case of “GUGGUGUGUGUUGGCCCCUAACACACGCCG [gtspaired]”, the binding signal (log2 fold change) is reported as -0.29. “GUGUGUGGUGUUGGCCUCUAACACCGCACG [gtspaired]” gave a binding signal (log2 fold change) of -0.521. “GGUUGGUGUGUUGGCGUCUAACACAUCAAC [gtspaired]” was tested, and the binding signal (log2 fold change) was -0.313. “GGUUGUGGUGUUGGCCCCUAACACCGCAGC [gtspaired]” showed a binding signal (log2 fold change) of -0.353. In the case of “UUUUUUUUUUGAGACCGCUCCGGUCUCCUA [tttttgagapaired]”, the binding signal (log2 fold change) is reported as 0.758. For “UUCCUUCUUCCUCCGCCGGAGGGAGAGGGA [ctspaired]”, the binding signal (log2 fold change) was -0.368. With “GUGUGUGGUGUUGGUAUCUAACACCGCGCA [gtspaired]” the binding signal (log2 fold change) was -0.613. With “GUGGUGUGUGUUGGACCCUAACACACGCCG [gtspaired]” the binding signal (log2 fold change) was -0.229. Sequence “UUUUUUUUUUGAGACGGGCCCCGUCUCCUA [tttttgagapaired]” has a binding signal (log2 fold change) of 0.736. Sequence “UUUUUUUUUUGAGACCGGGACGGUUUCCUA [tttttgagapaired]” has a binding signal (log2 fold change) of 0.48. Work on “GGUUGGUGUGUUGGAACCUAACACAUCGAC [gtspaired]” yielded a binding signal (log2 fold change) of -0.559. Work on “GUGUGGUGUGUUGGUGCCUAACACACUACA [gtspaired]” yielded a binding signal (log2 fold change) of -0.275. Sequence “UUUUUUUUUUGAGACGGGAACUGUCUCCGG [tttttgagapaired]” has a binding signal (log2 fold change) of 0.69. In the case of “UUUUUUUUUUGAGACGGAUACCGUCUCCGG [tttttgagapaired]”, the binding signal (log2 fold change) is reported as 0.397. “GUGGUGUGUGUUGGCGUCUAACACACGCCG [gtspaired]” showed a binding signal (log2 fold change) of -0.409. With “UUUUUUUUUUGAGACGGACCCCGUCUCCAG [tttttgagapaired]” the binding signal (log2 fold change) was 0.834. With “UUUUUUUUUUGAGACUGUCACAGUCUUCUA [tttttgagapaired]” the binding signal (log2 fold change) was 0.0496. “UUUUUUUUUUGAGAGCGAGGCGCUCUUCUA [tttttgagapaired]” showed a binding signal (log2 fold change) of 0.539. In the case of “UUUUUUUUUUGAGACGGAUGCCGUUUCCAG [tttttgagapaired]”, the binding signal (log2 fold change) is reported as 0.553. Work on “UUUUUUUUUUGAGAGCGUGGCGCUCUCCGG [tttttgagapaired]” yielded a binding signal (log2 fold change) of 0.181. In the case of “UUUUUUUUUUGAGAUGGGGUCUAUCUUCUA [tttttgagapaired]”, the binding signal (log2 fold change) is reported as 0.314. Work on “UUUUUUUUUUGAGACUGGAUCAGUCUUCUG [tttttgagapaired]” yielded a binding signal (log2 fold change) of 0.357. Sequence “UUUUUUUUUUGAGAGCGAAGCGCUCUCCUA [tttttgagapaired]” has a binding signal (log2 fold change) of -0.0954. “UUUUUUUUUUGAGACGGAGUCUGUUUCCUA [tttttgagapaired]” gave a binding signal (log2 fold change) of 0.194. “GUGGUUGGUGUUGGCCUCUAACACCAACUA [gtspaired]” gave a binding signal (log2 fold change) of -0.676. Sequence “UUUUUUUUUUGAGACGGUUUCCGUCUUCUA [tttttgagapaired]” has a binding signal (log2 fold change) of 0.0504. “GUGUGUGGUGUUGGAUCCUAACACCACGCG [gtspaired]” was tested, and the binding signal (log2 fold change) was -0.799. “UUUUUUUUUUGAGACGGGAACUGUCUUCUG [tttttgagapaired]” gave a binding signal (log2 fold change) of 0.955. With “UUUUUUUUUUGAGAGGGCUGCCCUCUCCAG [tttttgagapaired]” the binding signal (log2 fold change) was 1.06. Work on “UUUUUUUUUUGAGACUGAGGCAGUUUUCUA [tttttgagapaired]” yielded a binding signal (log2 fold change) of 0.315. For “UUUUUUUUUUGAGAGGGAGACCCUCUCCGG [tttttgagapaired]”, the binding signal (log2 fold change) was 0.242. For “UUUUUUUUUUGAGAGGGUCCCCCUCUCCUA [tttttgagapaired]”, the binding signal (log2 fold change) was 0.309. Work on “GUUGUGUGUGUUGGCUCCUAACACACACAG [gtspaired]” yielded a binding signal (log2 fold change) of -0.632. Sequence “UUUUUUUUUUGAGAGUGUAACAUUCUCCUA [tttttgagapaired]” has a binding signal (log2 fold change) of -0.0216. “UUUUUUUUUUGAGAUGGUAGCCAUCUCCGG [tttttgagapaired]” gave a binding signal (log2 fold change) of 0.381. “UUUUUUUUUUGAGACCGGAUCGGUUUCCAG [tttttgagapaired]” was tested, and the binding signal (log2 fold change) was 0.514. With “GUGUGUUGUGUUGGUAUCUAACACAGCACG [gtspaired]” the binding signal (log2 fold change) was -0.901. “UUUUUUUUUUGAGACUGUGUCAGUUUCCGG [tttttgagapaired]” gave a binding signal (log2 fold change) of 0.931. In the case of “UUUUUUUUUUGAGAACAAUGUAAUAAAAAA [ttttgagaunpaired]”, the binding signal (log2 fold change) is reported as -0.486. With “GUGUGGUGUGUUGGUUCCUAACACACUACG [gtspaired]” the binding signal (log2 fold change) was -0.589.
